Among all 310,000 compounds or so, about 2,200 (0.71%) showed an effect of 50% or more. The effect is printed as a negative number. Some of the results follow.

human ether-à-go-go-related gene (hERG) potassium channel, sequence (Q12809 whole entry, looked up): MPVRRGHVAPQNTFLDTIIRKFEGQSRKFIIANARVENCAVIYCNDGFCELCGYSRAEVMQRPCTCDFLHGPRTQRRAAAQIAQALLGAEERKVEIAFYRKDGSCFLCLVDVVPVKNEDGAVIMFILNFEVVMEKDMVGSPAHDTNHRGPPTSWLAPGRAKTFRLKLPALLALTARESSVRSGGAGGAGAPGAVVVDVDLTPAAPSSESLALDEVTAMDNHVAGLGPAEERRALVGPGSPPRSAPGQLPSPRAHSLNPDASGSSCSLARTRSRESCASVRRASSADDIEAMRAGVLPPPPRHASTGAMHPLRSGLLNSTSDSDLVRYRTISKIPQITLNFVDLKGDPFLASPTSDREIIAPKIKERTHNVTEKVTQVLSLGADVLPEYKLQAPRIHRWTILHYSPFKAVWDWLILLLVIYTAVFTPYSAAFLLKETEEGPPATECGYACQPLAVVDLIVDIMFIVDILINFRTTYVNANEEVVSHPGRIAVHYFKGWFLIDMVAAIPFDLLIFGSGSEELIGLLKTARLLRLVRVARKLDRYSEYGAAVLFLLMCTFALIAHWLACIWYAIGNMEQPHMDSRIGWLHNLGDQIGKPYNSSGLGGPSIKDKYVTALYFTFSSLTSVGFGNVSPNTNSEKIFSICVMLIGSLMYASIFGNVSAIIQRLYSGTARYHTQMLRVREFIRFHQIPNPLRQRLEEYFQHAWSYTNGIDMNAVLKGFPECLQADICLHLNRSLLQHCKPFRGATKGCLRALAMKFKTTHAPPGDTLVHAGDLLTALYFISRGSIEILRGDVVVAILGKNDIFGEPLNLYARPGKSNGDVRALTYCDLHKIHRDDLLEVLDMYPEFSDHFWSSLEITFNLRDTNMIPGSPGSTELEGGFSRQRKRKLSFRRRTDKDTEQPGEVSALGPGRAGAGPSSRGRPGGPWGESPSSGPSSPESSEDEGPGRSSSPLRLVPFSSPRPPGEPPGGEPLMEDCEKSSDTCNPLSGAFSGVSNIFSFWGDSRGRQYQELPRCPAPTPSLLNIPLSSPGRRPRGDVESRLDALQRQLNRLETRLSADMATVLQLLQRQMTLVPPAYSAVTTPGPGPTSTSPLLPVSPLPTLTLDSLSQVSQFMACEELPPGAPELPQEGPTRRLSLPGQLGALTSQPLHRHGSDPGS

The assay addresses human ether-à-go-go-related gene (hERG) potassium channel (human, UniProt Q12809). Put plainly: primary screen, population patch clamp on CHO cells stably expressing hERG.
In the case of `Cc1cc(C)n(-c2cc(N3CCN(C(=O)c4cccc(F)c4)CC3)ccc2[N+](=O)[O-])n1`, the “hERG current change (%, negative = inhibition) at 1uM” value is reported as -40.3%.

`COC(=O)c1ccccc1C(=O)N(c1ccccc1)c1ccccc1`: the “hERG current change (%, negative = inhibition) at 1uM” value is 11.2%.

Turning to `Cc1cc(OCC(=O)N(C)Cc2ccccc2)ccc1Br`, the “hERG current change (%, negative = inhibition) at 1uM” value is reported as 16%.

For the compound `Cc1cc(C)c(C(=O)N2CCCC(CNC(=O)C3(c4ccc(Cl)cc4)CC3)C2)c(=O)[nH]1` (centres unmarked), the “hERG current change (%, negative = inhibition) at 1uM” value came out at 7.33%.

With `CSc1nc(Oc2ccc3ccccc3c2)c2ccccc2n1`, the “hERG current change (%, negative = inhibition) at 1uM” value was 16%.

Take `CCC(C)[C@H](NC(=O)OC(C)(C)C)C(=O)N/N=C/c1cccc2nccnc12` (some centres unmarked): the “hERG current change (%, negative = inhibition) at 1uM” value was -9.2%.

Consider `O=C(O)C1CC=CCC1C(=O)Nc1cccc([N+](=O)[O-])c1` (centres unmarked), for which the “hERG current change (%, negative = inhibition) at 1uM” value stood at 7.21%.

Turning to `COc1ccc(-c2nn(CCC#N)cc2C=C(C#N)C#N)cc1`, the “hERG current change (%, negative = inhibition) at 1uM” value amounted to 6.92%.

Consider `C=CCSC1=C(C#N)C(c2ccc(C(C)C)cc2)CC(=O)N1` (centres unmarked), for which the “hERG current change (%, negative = inhibition) at 1uM” value was 3.05%.

Consider `COC/C=C/C1=CC2=CC(=O)C(C)(OC(=O)c3cnc4ccccc4n3)C(=O)C2=CN1c1ccc(CO)cc1` (centres unmarked), for which the “hERG current change (%, negative = inhibition) at 1uM” value is -12.3%.

As for `O=C(Nc1cccc(OC(=O)c2ccc(Br)o2)c1)c1ccccc1`, the “hERG current change (%, negative = inhibition) at 1uM” value was 9.2%.

Regarding `CC(Sc1nc2cc([N+](=O)[O-])ccc2n1-c1ccc(F)cc1)C(=O)NCc1ccc2c(c1)OCO2` (centres unmarked), the “hERG current change (%, negative = inhibition) at 1uM” value is reported as 6.68%.

`Cc1cc(SCC(=O)N2CCC(c3noc4ccc(F)cc34)CC2)nc2ccccc12`: the “hERG current change (%, negative = inhibition) at 1uM” value is -0.78%.

As to `COC(=O)Cc1c(C)nc2nc(-c3ccc(Cl)cc3)[nH]n2c1=O`, the “hERG current change (%, negative = inhibition) at 1uM” value amounted to 6.86%.

As to `O=C(N/N=C/c1c(O)ccc2ccccc12)c1ccc[n+](CCO)c1.[Cl-]`, the “hERG current change (%, negative = inhibition) at 1uM” value was 8.18%.

As to `Cc1cc(NC(=O)c2cccc(COc3ccc(Br)cc3)c2)no1`, the “hERG current change (%, negative = inhibition) at 1uM” value stood at 4.41%.

On to `COC(=O)c1ccc(NC(=S)Nc2ccc3ccccc3c2)cc1`, for which the “hERG current change (%, negative = inhibition) at 1uM” value is 19%.

As to `CC(=O)Nc1ccc(C(=O)OC2CCCCC2=O)cc1` (centres unmarked), the “hERG current change (%, negative = inhibition) at 1uM” value stood at 11%.

With `CC1(C)CC(=O)c2cc(NC(=O)c3ccccc3)c(=O)oc2C1`, the “hERG current change (%, negative = inhibition) at 1uM” value worked out at 29.3%.

On to `CCOC(=O)N1CCN(C(=O)CCC2CCCC2)CC1`, for which the “hERG current change (%, negative = inhibition) at 1uM” value is 10.1%.

With `Cc1ccc(S(=O)(=O)N2CC(C)N(C(=O)N3CCOCC3)C2)cc1` (centres unmarked), the “hERG current change (%, negative = inhibition) at 1uM” value came to 8.94%.

`COc1ccc(CC(=O)Nc2ccc(OC(C)=O)cc2C(=O)O)cc1`: the “hERG current change (%, negative = inhibition) at 1uM” value is -3.47%.

Regarding `CCOc1ccc(C(O)c2nccn2C)cc1` (centres unmarked), the “hERG current change (%, negative = inhibition) at 1uM” value came to 13.8%.

With `S=C(NNc1ccnc2cc(Cl)ccc12)Nc1ccccc1Cl`, the “hERG current change (%, negative = inhibition) at 1uM” value is 11.1%.

With `Brc1ccccc1-n1nnc(-c2nccs2)n1`, the “hERG current change (%, negative = inhibition) at 1uM” value stood at 10.6%.

Consider `O=C(Nc1ccc(S(=O)(=O)N2CCCC2)cc1)C1COc2ccccc2O1` (centres unmarked), for which the “hERG current change (%, negative = inhibition) at 1uM” value is listed as 3.69%.

As for `C/C=C/c1ccc(OC)c(OC(C)=O)c1`, the “hERG current change (%, negative = inhibition) at 1uM” value is reported as 5.15%.

As to `O=C(CCn1nnc2ccccc21)OCC(=O)c1ccc(F)cc1`, the “hERG current change (%, negative = inhibition) at 1uM” value was 2.32%.

In the case of `CCOC(=O)N1CCC(N2Cc3cccc(C(=O)Nc4ccc(OC)c(OC)c4)c3C2=O)CC1`, the “hERG current change (%, negative = inhibition) at 1uM” value is -4.54%.

As for `O=C(NCc1ccco1)c1ccc(OCC2CCCO2)cc1` (centres unmarked), the “hERG current change (%, negative = inhibition) at 1uM” value is given as -14.4%.

As for `Cc1oc(-c2cc3c(cc2Cl)OCO3)nc1CN1CCCC(C(=O)N2CCOCC2)C1` (centres unmarked), the “hERG current change (%, negative = inhibition) at 1uM” value was determined as 5.53%.

As for `CCC(C)(C(=O)NC1CCCC1)N(Cc1cccs1)C(=O)Cc1cccs1` (centres unmarked), the “hERG current change (%, negative = inhibition) at 1uM” value is given as -6.62%.

On to `Cn1c(=O)oc2cc(S(=O)(=O)N3CCOCC3)ccc21`, for which the “hERG current change (%, negative = inhibition) at 1uM” value was found to be 9.83%.

`Cc1ccn(CC(=O)N/N=C/c2cc([N+](=O)[O-])ccc2O)n1`: the “hERG current change (%, negative = inhibition) at 1uM” value came out at 7.21%.

In the case of `Cc1ccc(/C=C/C(=O)Nc2nccs2)o1`, the “hERG current change (%, negative = inhibition) at 1uM” value amounted to 3.62%.

Regarding `Cc1ccc2nccc(C(=O)N3CCCC(N4CCN(c5ccc(F)cc5)CC4)C3)c2c1` (centres unmarked), the “hERG current change (%, negative = inhibition) at 1uM” value is on record as -5.78%.

`Fc1ccccc1Cn1nnc(-c2ccc3c(c2)OCO3)n1`: the “hERG current change (%, negative = inhibition) at 1uM” value is recorded as 8.58%.

For the compound `CC(C)c1ccc2oc(-c3ccc(N)cc3)nc2c1`, the “hERG current change (%, negative = inhibition) at 1uM” value was found to be 8.3%.

In the case of `Cn1c(=O)c(=O)n(C)c2cc(S(=O)(=O)N3CCOCC3)ccc21`, the “hERG current change (%, negative = inhibition) at 1uM” value is on record as -0.569%.

As to `CC(=O)NC(c1cc(Cl)c2cccnc2c1O)C(C)C` (centres unmarked), the “hERG current change (%, negative = inhibition) at 1uM” value is 6.11%.

Consider `COc1ccc([C@H]2Oc3cc(O)cc(O)c3C(=O)C2[C@@H]2C(=O)c3c(O)cc(O)cc3O[C@@H]2c2ccc(OC)cc2)cc1` (some centres unmarked), for which the “hERG current change (%, negative = inhibition) at 1uM” value was 10.6%.

As to `Cc1cccc(Cn2c(C(=O)OC(C)C)cc3c2ccn3C)c1`, the “hERG current change (%, negative = inhibition) at 1uM” value stood at 8.55%.

Regarding `Cc1ccc(C)c(Cn2c3ccccc3c3cnn(CC(=O)NCCCN4CCOCC4)c(=O)c32)c1`, the “hERG current change (%, negative = inhibition) at 1uM” value was determined as 5.8%.

As for `CN1CCN(C(=S)c2ccc(Cl)cc2)CC1`, the “hERG current change (%, negative = inhibition) at 1uM” value amounted to 10.7%.

Consider `O=C(Cn1c(=O)c2cccn2c2ccc(F)cc21)N1CCN(c2ccc(F)cc2)CC1`, for which the “hERG current change (%, negative = inhibition) at 1uM” value was 16.6%.

Turning to `NNC(=O)c1ccc2[nH]c3c(c2c1)CCCC3`, the “hERG current change (%, negative = inhibition) at 1uM” value amounted to 10.1%.

On to `O=C(NCc1ccco1)Nc1ccc2snnc2c1`, for which the “hERG current change (%, negative = inhibition) at 1uM” value is 4.77%.

With `Cc1c(C(=O)c2ccc([N+](=O)[O-])cc2)c(=O)n(C)c(=O)n1C`, the “hERG current change (%, negative = inhibition) at 1uM” value is 1.89%.

As to `Cn1c(=O)n(C)c2cc(NC(=O)c3ccccc3[N+](=O)[O-])c(Br)cc21`, the “hERG current change (%, negative = inhibition) at 1uM” value came out at 7.77%.

Take `CCn1c(SCC(=O)NCc2ccco2)nc2ccccc2c1=O`: the “hERG current change (%, negative = inhibition) at 1uM” value is on record as -0.68%.

`O=C(NCc1cccnc1)c1ccc(Br)o1`: the “hERG current change (%, negative = inhibition) at 1uM” value was 18.3%.

Take `Cc1nc(C)c(-c2ccc(SCC(=O)Nc3ccc(F)cc3F)nn2)s1`: the “hERG current change (%, negative = inhibition) at 1uM” value stood at 9.24%.

With `O=C(NCCNc1ccc2ccccc2c1)c1cccn2c(=O)c3sccc3nc12`, the “hERG current change (%, negative = inhibition) at 1uM” value was found to be 1.09%.

In the case of `CCN(CC)C(=O)COc1ccc2c(-c3ccc(OC)cc3)cc(=O)oc2c1`, the “hERG current change (%, negative = inhibition) at 1uM” value was found to be 11.9%.

On to `O=C(CCSc1ccc(Cl)cc1)N1CCOCC1`, for which the “hERG current change (%, negative = inhibition) at 1uM” value is 11.3%.

`COc1ccc(N2CCN(C(=O)c3oc4ccccc4c3NC(=O)CCc3cc(OC)no3)CC2)cc1`: the “hERG current change (%, negative = inhibition) at 1uM” value is given as 3.95%.

Values taken from article PMC4336329 (PLoS ONE, 2015).
